# According to paper PMC4336329 (PLoS ONE, 2015):
# Hit rate of the full screen: of about 310,000 compounds, about 2,200 (0.71%) showed an effect of 50% or more. Effects have a minus sign here. The list shows a part of the results.
# Molecular target: human ether-à-go-go-related gene (hERG) potassium channel (human, UniProt Q12809)
# Assay: primary screen, population patch clamp on CHO cells stably expressing hERG
# human ether-à-go-go-related gene (hERG) potassium channel, sequence (Q12809 whole entry, looked up): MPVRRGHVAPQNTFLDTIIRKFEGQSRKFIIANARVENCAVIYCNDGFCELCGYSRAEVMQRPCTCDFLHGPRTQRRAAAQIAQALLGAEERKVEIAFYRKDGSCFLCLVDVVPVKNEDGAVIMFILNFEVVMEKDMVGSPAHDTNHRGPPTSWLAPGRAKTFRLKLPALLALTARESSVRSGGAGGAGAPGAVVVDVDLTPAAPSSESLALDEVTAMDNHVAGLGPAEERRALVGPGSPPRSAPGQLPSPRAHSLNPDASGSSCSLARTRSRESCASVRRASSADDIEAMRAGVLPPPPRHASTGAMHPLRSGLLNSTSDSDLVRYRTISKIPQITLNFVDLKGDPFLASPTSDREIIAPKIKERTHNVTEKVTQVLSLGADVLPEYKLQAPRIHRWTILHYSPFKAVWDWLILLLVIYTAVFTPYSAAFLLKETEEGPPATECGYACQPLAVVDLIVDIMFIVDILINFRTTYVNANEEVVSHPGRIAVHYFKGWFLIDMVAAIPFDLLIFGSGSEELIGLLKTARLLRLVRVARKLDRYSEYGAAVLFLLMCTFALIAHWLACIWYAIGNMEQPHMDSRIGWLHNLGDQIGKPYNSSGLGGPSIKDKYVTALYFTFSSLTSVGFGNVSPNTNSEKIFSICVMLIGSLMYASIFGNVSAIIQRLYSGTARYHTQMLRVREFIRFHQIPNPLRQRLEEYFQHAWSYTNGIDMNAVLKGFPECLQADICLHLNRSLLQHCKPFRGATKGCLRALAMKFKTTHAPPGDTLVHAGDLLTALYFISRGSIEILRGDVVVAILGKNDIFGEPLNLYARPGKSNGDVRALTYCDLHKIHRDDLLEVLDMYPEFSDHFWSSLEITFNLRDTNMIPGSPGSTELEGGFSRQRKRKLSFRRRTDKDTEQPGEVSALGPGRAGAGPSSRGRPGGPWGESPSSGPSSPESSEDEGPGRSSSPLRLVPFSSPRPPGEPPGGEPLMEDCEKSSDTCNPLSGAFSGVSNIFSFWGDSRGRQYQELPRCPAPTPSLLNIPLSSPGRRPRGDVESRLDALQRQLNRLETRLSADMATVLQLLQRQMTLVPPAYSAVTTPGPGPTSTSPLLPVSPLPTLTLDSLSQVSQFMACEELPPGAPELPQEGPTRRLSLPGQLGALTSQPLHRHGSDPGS
row,Compound,"hERG current change (%, negative = inhibition) at 1uM [%]"
1,COc1cc(Br)cc(CNc2ccc(F)c([N+](=O)[O-])c2)c1O,11.3
2,CCCSc1nnc(-c2c[nH]c3ccccc23)n1CC,3.09
3,CCOc1ccccc1Oc1ccc(C(F)(F)F)cn1,16
4,O=c1[nH]c(C2CCN(S(=O)(=O)c3ccc4c(c3)OCCO4)CC2)nc2c1nnn2Cc1c(F)cccc1Cl,13.5
5,COc1ccc2nc(SCC(=O)Nc3ccccc3C)[nH]c2c1,3.24
6,O=C(NC(Cc1ccccc1)C(=O)O)/C(=C/c1ccc(Cl)cc1)NC(=O)c1ccccc1 (stereo not drawn),13.4
7,Cc1cccc(-c2nnn3c2nc(NCCc2ccc(S(N)(=O)=O)cc2)c2ccccc23)c1,21.3
8,O=C(O)CC(NC(=O)OCc1ccccc1)c1ccc(Br)cc1 (stereo not drawn),18
9,COc1ccccc1C(=O)CC(=O)c1ccccc1,17.4
10,O=S1(=O)C=C(SCc2ccc(Cl)c(Cl)c2)Nc2ccccc21,-15.1
11,COc1ccc(CC(C)CC(=O)Nc2ccc(OC)cc2)cc1 (stereo not drawn),11.1
12,COc1ccc(-c2[nH]c(-c3ccc(C(=O)O)cc3)nc2-c2ccccc2)cc1,5.67
13,O=C(NCC(c1cccs1)N1CCOCC1)c1cc(S(=O)(=O)N2CCOCC2)ccc1F (stereo not drawn),-12.4
14,C/C=C/c1cc(OC)c2c(c1)[C@H](C)[C@@H](c1ccc(O)c(OC)c1)O2,15.8
15,COc1ccc(N2CCN(c3ncnc4nc[nH]c34)CC2)cc1,14.8
16,CCN1CCCC1CNC(=O)CSc1cc(=O)n(CC)c2ccccc12 (stereo not drawn),7.45
17,Cc1ccc2nc(N3CCN(C(=O)c4ccco4)CC3)sc2c1,-7.42
18,CC(C)(CNC(=O)c1cccs1)N1CCOCC1,3.97
19,CC1CCN(S(=O)(=O)c2ccc3c(c2)N(CC(=O)NCCCN2C(C)CCCC2C)C(=O)CO3)CC1 (stereo not drawn),6.07
20,CCCCC(=O)N(Cc1ccc(F)cc1)C1CCS(=O)(=O)C1 (stereo not drawn),5.63
21,COC(=O)c1ccccc1COn1c(=O)c(C)[n+]([O-])c2ccccc21,11.8
22,CCOC(=O)C1(CCOc2ccccc2)CCN(Cc2ccccc2OC)CC1,-37.2
23,CN(CCCC(=O)NCCc1ccccc1)S(=O)(=O)c1ccc([N+](=O)[O-])cc1,-5.92

row,Compound,"hERG current change (%, negative = inhibition) at 1uM [%]"
1,CC(C(=O)Nc1ccc2c(c1)OCCO2)c1ccc([N+](=O)[O-])cc1 (stereo not drawn),-0.0809
2,CCc1ccc(N2C(=O)CC(N3CCN(c4ccccn4)CC3)C2=O)cc1 (stereo not drawn),9.83
3,CCOc1cc(C(=O)Nc2cnccn2)cc(OCC)c1OCC,-1.34
4,S=c1[nH]nc(COc2ccccc2)n1/N=C/c1cccs1,5.49
5,COc1ccc(Cl)cc1N/C(N)=N/c1nc(C)cc(=O)[nH]1,12.3
6,CCNC(=S)N(CCc1c(C)[nH]c2ccc(OC)cc12)Cc1cccnc1,9.2
7,Cc1ccc(S(=O)(=O)N(C)CC(=O)Nc2cc(C)ccn2)cc1,5.22
8,O=C(/C=C\NCC(=O)c1ccccc1)c1ccc(F)cc1,-2.16
9,Cc1cc(=O)oc2cc(NC(=O)C3CCCC3)ccc12,10.5
10,Cc1ccc2nc(NC(=O)CSc3nc4ccccc4o3)sc2c1,11.5
11,Cl.OC(CN1CCN(c2cccc(Cl)c2)CC1)C(c1ccccc1)c1ccccc1 (stereo not drawn),4.57
12,CCCCOC(=O)Cn1c(=O)c2c(nc3n2CCCCN3c2ccc(C)cc2)n(C)c1=O,-16.3
13,Cc1ccc(NC(=O)Cc2nnc(SCC(=O)NC3CCCC3)n2C)cc1C,1.75
14,CCC(C)C(=O)Nc1nc2ccc(S(C)(=O)=O)cc2s1 (stereo not drawn),9.31
15,Cc1ccc(S(=O)(=O)NCc2cc(=O)n(C)c(=O)n2C)cc1C,9.96
16,CCO[C@@H]1OC(C(=O)N2CCN(Cc3ccccc3)CC2)=C[C@H](C)[C@H]1CCCO,11.1
17,Cc1sc2ncnc(Sc3nnnn3-c3ccc(Cl)cc3)c2c1C,9.98
18,COc1ccc(N2CCN(C(=O)C(=O)c3c(C)n(C)c4ccccc34)CC2)cc1,10.7
19,COc1ccc(C(=O)Nc2ccccc2C(=O)N2CCCCC2C)cc1 (stereo not drawn),5.39
20,CCN(CC(=O)Nc1ccccc1C(F)(F)F)C(=O)c1cc(-c2cccs2)nn1-c1ccccc1,0.102
21,CNC(=O)C1CCN(S(=O)(=O)c2c(C)noc2/C=C/c2cccc(OC)c2)CC1,9.04
22,CCC(CO)(CO)N(CC(=O)Nc1ccc(OC)cc1)CC(=O)Nc1ccc(OC)cc1,14.4
23,CNc1c(NS(=O)(=O)c2cc(OC)ccc2OC)c(=O)oc2ccccc12,12.5

row,Compound,"hERG current change (%, negative = inhibition) at 1uM [%]"
1,CC(CC1C(C#N)=C(N)SC(N)=C1C#N)c1ccccc1 (stereo not drawn),-2.17
2,CCC1(CCCC(=O)c2ccc(F)cc2)C(=O)NC(=S)NC1=O,4.85
3,CCOC(=O)CNC(=O)N1CCC(CCC(=O)N(C)Cc2ccccc2)CC1,12
4,Cc1ncc(CO)c2cc(C(=O)Nc3cccc(F)c3)c(=Nc3cccc(C(N)=O)c3)oc12,12.1
5,O=C(CCN1C(=O)S/C(=C/c2ccc(Cl)cc2)C1=O)N1CCOCC1,7.97
6,Cc1cc(C(=O)Nc2ccc(F)cc2F)on1,15.7
7,Cc1ccc(C(=O)Cn2cc([N+](=O)[O-])nc2C)cc1,7.68
8,CN=c1scc(C)n1/N=C/c1ccc(O)c(O)c1O,15
9,Cc1ccc(OCCC(=O)N(Cc2ccccc2)c2c(N)n(Cc3ccccc3)c(=O)[nH]c2=O)cc1,12.7
10,CCN(CC)c1ccc(NC(=O)C2CCC(CNc3c(N4CCCC4)c(=O)c3=O)CC2)c(C)c1 (stereo not drawn),13.6
11,CN(C)/C=C(\C#N)c1nc2ccccc2[nH]1,8.26
12,COc1ccc(CCNS(=O)(=O)c2cccs2)cc1,12.6
13,Cc1ccc(C2C(C(=O)c3cc4ccccc4o3)=C(O)C(=O)N2CCN2CCOCC2)o1 (stereo not drawn),8.24
14,Cc1cc(-c2nnc(SCC(=O)c3ccc(F)cc3)o2)no1,11.4
15,CN(C)c1cccc(C(=O)OCC(=O)Nc2ccccc2Cl)c1,13.7
16,OC(CNCC1CCCCC1)COc1ccccc1 (stereo not drawn),6.17
17,CCOc1ccc(-c2cc(C(=O)N/N=C/c3ccc(O)cc3)c3ccccc3n2)cc1,4.98
18,CCn1c2ccccc2c2nnc(SCC(=O)Nc3ncccn3)nc21,1.79
19,Cc1nn(Cc2ccccc2Cl)c(Cl)c1C(=O)OC(C(=O)NC(N)=O)C(C)C (stereo not drawn),6.86
20,Cc1ccc(N2CCN(c3ccc(C)cc3)C2c2cccnc2)cc1,10.9
21,CCOC(=O)c1c(C)n(-c2ccccc2)c2ccc(OCCN(C)C)cc12,7.59
22,NC(=O)C1CCN(CC(=O)Nc2nccs2)CC1,12.8
23,Cc1nc(Cc2ccc(OC(C)C)cc2)[nH]c(=O)c1CC(=O)O,9.85

row,Compound,"hERG current change (%, negative = inhibition) at 1uM [%]"
1,O=C(Nc1cccnc1)c1cccc(S(=O)(=O)N2CCCCC2)c1,12.1
2,CC(C)Cn1c(=O)c2c(nc3n2CCCN3Cc2ccccc2)n(C)c1=O,6.6
3,Brc1ccc(C2CC(c3ccccc3)=Nc3ccccc3N2)cc1 (stereo not drawn),10.3
4,[O-]/[N+](=C\c1ccncc1)c1ccccc1,3.59
5,Oc1c(Cl)c(Cl)c(Cl)c(Cl)c1Cl,20.7
6,CC(C)CNC(=O)c1c(F)c(F)c(F)c(F)c1F,8.56
7,Cn1cnnc1SCc1ccc(C(=O)N/N=C(\CCC(=O)O)c2ccc(C(C)(C)C)cc2)cc1,2.77
8,O=C1CCc2cc(S(=O)(=O)N3CCC(C(=O)Nc4nccs4)CC3)ccc2N1,6.4
9,CCN(C(C)=O)N(CC)c1nc(Cl)nc(NC(C)C)n1,4.24
10,O=C(Nc1ccccc1)OCCOc1ccccc1Br,20.3
11,Cc1nn(-c2ccccc2)nc1C(=O)NN,9.14
12,c1cc2ccc3ccc(CN4CCOCC4)c4ccc(c1)c2c34,3.58
13,COc1cccc(C2CC(c3ccccc3)Nc3nc(N)nn32)c1 (stereo not drawn),2.21
14,Cc1ccc(NC(=S)N2CCN(c3ccccn3)CC2)cc1C,12.7
15,COc1ccc(NC(=O)C2CC(=O)NC3=C2C(=O)CC(C)(C)C3)cc1 (stereo not drawn),-1.62
16,CCNC(=O)C(=O)N1CCC2(CC1)OCCN2S(=O)(=O)c1ccc(C)cc1,10.8
17,Cc1cc(C)c2c(c1)/C(=N/Nc1ccc(S(N)(=O)=O)cc1[N+](=O)[O-])CCC2,8.52
18,COc1cccc(/C=C2\Oc3cc(OCC(=O)N4CCCCC4)ccc3C2=O)c1OC,12.8
19,CC(=O)Nc1sc(C)c(C)c1C(=O)OCCOc1ccccc1,12.4
20,O=C(Nc1cccc(Cl)c1)Nc1ccon1,6.02
21,c1cn(CCCNC2=NCCCCC2)cn1,13.5
